PubChem BioAssay AID1159614 (National Center for Advancing Translational Sciences (NCATS), 2016)
Among all 45,000 compounds or so, about 65 (0.1%) were called active. Calls come from the whole dose curve; as a rule, active = well fitted activation curve with a large enough effect; inconclusive = small, poorly fitted or top-dose-only effect; inactive = no such curve, though single readings can be large or run the other way. The list shows a part of the results.

molecular target: Galactocerebrosidase (Homo sapiens) (UniProt P54803); experiment: A Novel Cell-Based Assay to Identify Small Molecules for B -Galactocerebrosidase; details: 145M-Twi-hGALC-G270D cells (Twitcher mouse brain line with human GALC G270D), HMU-beta-Gal fluorescence, 48 h; series mostly up to 57.5 µM; activation: at the top concentration; note: 0% is about no effect; nearly all actives have a fitted effect of over 65% in size
UniProt P54803, sequence (P54803 whole entry, looked up): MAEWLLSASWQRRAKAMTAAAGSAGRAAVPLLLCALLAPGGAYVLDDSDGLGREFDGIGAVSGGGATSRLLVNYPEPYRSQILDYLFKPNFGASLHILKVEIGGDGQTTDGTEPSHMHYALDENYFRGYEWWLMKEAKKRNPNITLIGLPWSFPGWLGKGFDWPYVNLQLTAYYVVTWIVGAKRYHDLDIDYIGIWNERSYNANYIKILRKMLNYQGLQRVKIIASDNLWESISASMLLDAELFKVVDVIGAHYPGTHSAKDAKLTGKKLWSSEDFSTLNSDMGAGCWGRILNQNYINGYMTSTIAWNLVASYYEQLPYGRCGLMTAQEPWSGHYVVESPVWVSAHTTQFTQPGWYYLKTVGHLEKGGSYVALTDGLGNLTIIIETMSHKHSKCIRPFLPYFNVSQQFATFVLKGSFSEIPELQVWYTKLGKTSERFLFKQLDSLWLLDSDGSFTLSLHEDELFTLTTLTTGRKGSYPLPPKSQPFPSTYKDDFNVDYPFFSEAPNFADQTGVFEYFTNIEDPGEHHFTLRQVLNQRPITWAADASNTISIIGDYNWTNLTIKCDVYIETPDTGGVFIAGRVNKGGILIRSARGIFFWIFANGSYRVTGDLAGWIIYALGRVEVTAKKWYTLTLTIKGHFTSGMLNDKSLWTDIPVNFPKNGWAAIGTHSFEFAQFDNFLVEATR
Outline: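 Mutant human GALC (G270D), stably expressed in a Twitcher mouse brain cell line lacking endogenous GALC, is measured in live-treated cells via 6-hexadecanoylamino-4-methylumbelliferyl-β-galactoside hydrolysis (0.1 mM final, pH 5.2) with fluorescent detection.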

activation, inactive:
COc1ccc(CCNc2ncnc3c2nnn3C)cc1OC -10.2%, Cc1ccc(-n2nc(C)c3c(C)cc(=O)n(CC(=O)Nc4ccc(C(C)C)cc4)c32)cc1 -10.4%, COc1ccc(NC(=O)c2c(NCc3cccs3)sc3c2CCCCC3)cc1 2.14%, CN(C1CCCCC1)S(=O)(=O)c1ccc(F)c(C(=O)Nc2ccc(C(F)(F)F)cc2)c1 -14.7%, Cc1c(C(=O)Nc2cccc(F)c2)sc2nc(-c3cc4ccccc4oc3=O)[nH]c(=O)c12 -14.4%, COc1cc(OC)cc(C(=O)NCCc2csc(-c3cccc(C)c3)n2)c1 -26.6%, CC1CCCCN1C(=O)c1ccc2c(c1)N(Cc1ccc(Cl)cc1)C(=O)c1ccccc1S2=O (configuration not stated) -14.8%, CCc1ccc(NC(=O)C(=O)NCCc2sc(-c3ccc(OC)c(OC)c3)nc2C)cc1 0.317%, CC(C)C(=O)NC1CC(=O)N(c2ccc3c(c2)OCCO3)C1 (configuration not stated) -1.86%, Cc1nnc(N2CCN(c3ccc(Cl)cc3)CC2)c2c1nnn2Cc1ccc(F)cc1 -23.8%, COc1ccccc1Cn1ccn(CC(=O)Nc2c(C)cc(C)cc2C)c(=O)c1=O 3.74%, COc1cccc(C(c2sc3nc(-c4ccco4)nn3c2O)N2CCCC2)c1 (configuration not stated) -6.31%, CCc1cccc(NC(=O)c2cc(-c3ccccc3)n[nH]2)c1 -4.64%, O=C(Nc1cccc(Cl)c1)C1CCN(c2nc3ccccc3nc2C(F)(F)F)CC1 -14.8%, CCOC(=O)c1[nH]c2ccccc2c1NC(=O)c1c(F)cccc1F -12%, O=C(NCc1ccccc1Cl)c1ccc2c(c1)N(Cc1ccccc1)C(=O)c1ccccc1S2 -2.68%, CCOC(=O)c1sc2ncn(CC(=O)Nc3cccc(C)c3)c(=O)c2c1C 2.62%, Cc1ccccc1Cn1c(=O)n(Cc2ccco2)c(=O)c2oc3ccccc3c21 -19.8%, O=C(c1ccc2c(c1)CCN2S(=O)(=O)c1ccc(Cl)cc1)N1CCN(c2ccccc2F)CC1 -34%, COc1ccc(Nc2ncc(C(=O)N3CCN(c4ccc(OC)cc4)CC3)c3ccccc23)cc1 -11.3%, CC(C)N(Cc1ccccc1)C(=O)c1cc2ccc3cccnc3c2[nH]1 -1.72%, CCOc1ccccc1N1CC(c2nc3ccccc3n2CCCOc2ccccc2)CC1=O (configuration not stated) -6.41%, CCOc1ccccc1C(N)=O -12.8%, CCOC(=O)C1CCN(C(=O)c2nn(-c3ccc(C)cc3)c(=O)c3c2c2ccccc2n3C)CC1 -11.2%, CCC(CC)C(=O)Nc1ccc(OCc2cc(=O)n3ccc(C)cc3n2)cc1 -23.1%, CN(C)c1ccc(CN2CCc3nc(N4CCN(c5ccccn5)CC4)ncc3C2)cc1 -14.4%, Cc1c(F)cccc1NS(=O)(=O)c1cccs1 -19.2%, Cc1nc2c(c(SCC(=O)Nc3ccccc3C(F)(F)F)n1)CCC2 -10.9%, Cc1cc(OC(C)C(=O)N2CCN(CCc3ccccn3)CC2)ccc1Cl (configuration not stated) -15.1%, Cc1ccc(-n2ncc3c(NCCO)ncnc32)cc1Cl -8.65%, COc1ccc(CNC(=O)Cc2ccc(NC(=O)N3CCSc4ncccc43)cc2)cc1OC -25.6%, Cc1cc(NC(=O)c2cc(-c3ccc(Cl)cc3)on2)n(-c2ccccc2)n1 -1.18%, CCOc1cccc(C2c3[nH]c4ccccc4c3CCN2C(=O)CSc2ccccc2)c1 (configuration not stated) -13.1%, Cc1cccc(C(=O)N2CCc3cc(CNC(=O)COc4ccc(Cl)cc4)ccc32)c1 -12.5%, COc1c(C)cc(Br)cc1C(=O)Nc1ccc(-c2nc3ncccc3o2)cc1 -13.8%, COc1cc(NC(=O)c2ccc3oc(=O)c(S(=O)(=O)c4ccccc4)cc3c2)cc(OC)c1 -14.5%, CCOc1ccc(NC(=O)Cn2c(=O)n(-c3cccc(Cl)c3)c(=O)c3c2c2cc(C)ccc2n3C)cc1 -9.81%, Cc1nc(SCC(=O)Nc2ccccc2C)cc(-c2ccccc2)n1 -14.5%, Cc1ccccc1NC(=O)CSc1cn(CC(=O)N2CCCCCC2)c2ccccc12 -10.1%, CCOc1ccccc1NC(=O)c1ccc2c(c1)CCN2S(=O)(=O)c1ccc(C)cc1 -16.6%, COc1cc2c(=O)c(C(=O)c3ccc(C)c(C)c3)cn(Cc3ccc(F)cc3)c2cc1OC -13.5%, CCOC(=O)c1c(C)[nH]c(C)c1S(=O)(=O)NCC(=O)Nc1ccc(C)c(N(C)C)c1 -16.2%, CCOc1cc(CNC(=O)Cn2c(=O)c3cccn3c3ccc(F)cc32)cc(OCC)c1OCC 6.62%, CCSc1nnc2c(n1)OC(c1cc(OC)c(OC)c(OC)c1)Nc1ccccc1-2 (configuration not stated) 7.22%, Cc1ccccc1Nc1c(-c2ccc(Cl)cc2)nc2c(C)cccn12 -8.81%, CC(C)c1ccc(NC(=O)C2CCN(S(=O)(=O)c3cccc4nonc34)CC2)cc1 2.32%, Cc1ccc(N2C(=O)CSC23C(=O)N(Cc2ccccc2F)c2ccccc23)cc1F (configuration not stated) -40.7%, CCOC(=O)c1c(NC(=O)c2nc(SCC)ncc2Cl)sc2c1CCCC2 -20.3%, COc1ccc(NC(=O)Cn2c(=O)n(CCc3ccccc3)c(=O)c3c4c(sc32)CCCC4)cc1 1.29%, COc1cc(NS(=O)(=O)c2ccc(NC(=O)c3cccc(F)c3)cc2)nc(OC)n1 9.09%, COc1cc(NC(=O)CC2C(=O)OCCN2Cc2ccccc2)cc(OC)c1 (configuration not stated) -10.3%, CCC1CN(S(=O)(=O)c2cc(-c3cc(C)no3)ccc2C)c2cc(Cl)ccc2O1 (configuration not stated) -15.9%, Cc1ccccc1NC(=O)c1ccc2[nH]c(C)c(C)c2c1 -28.4%, CCC(CC)c1nn2c(=O)cc(COc3ccc(NC(=O)c4ccccc4C)cc3)nc2s1 4.63%, Cc1c(Cl)cccc1NC(=O)Cn1c(=O)n(Cc2ccco2)c(=O)c2sc3ccccc3c21 -6.65%, Cc1c(C(=O)NCc2ccc(Cl)cc2)sc2nc3n(c(=O)c12)CCCCC3 -7.25%, COc1ccc(S(=O)Cc2ccc(C(=O)N3CCN(c4cccc(C)c4C)CC3)o2)cc1 (configuration not stated) 3.63%, O=C(CCCCn1c(=O)c2ccccc2n(CC(=O)Nc2cccc(C(F)(F)F)c2)c1=O)NCc1ccc2c(c1)OCO2 -1.08%, O=C(Nc1ccc(C(=O)OCc2cc(=O)n3c4c(sc3n2)CCCC4)cc1)c1ccc(F)cc1 -8.47%, CCc1nn2c(-c3ccccc3OC)ccnc2c1-c1ccccc1 -10.7%, COc1cccc(Cn2c(=O)cc(C)c3c(C)nn(C)c32)c1 -7.86%, CCc1cccc(C)c1NC(=O)CCS(=O)(=O)c1cc(Br)cc2c1N(C(=O)C1CC1)CC2 -13.9%
